Experimental data reported in the supplement of paper PMC4967469.
A lower IC50 marks a more sensitive line; a fit beyond the top or the lowest dose is shown as a bound at that dose. AUC sums up the same curve from the lowest dose to the 256-fold higher top dose; it is 1 without any effect and falls as sensitivity rises. For some assays here: The top dose, if marked as inferred, comes from the curve model; the source does not state it. For some assays here: An entry number marks a drug with two screens in the source, which often give different values.

How the values were obtained:
Assay in all cases: Viability of human cancer cell lines after 72 h of drug (GDSC screen)
JNK Inhibitor VIII = compound: CCOc1nc(NC(=O)Cc2cc(OC)ccc2OC)cc(N)c1C#N [JNK Inhibitor VIII]; conditions: top dose 10 µM; top dose inferred
Experimental: (§1)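 Human cancer cell lines in 384-well plates, medium with 10% serum, drug for 72 h over a 256-fold dose range (nine 2-fold or five 4-fold steps up to the top dose). Adherent lines were fixed and stained with the nucleic acid dye Syto60, suspension lines read with resazurin; signal relative to control wells, capped at 0 and 100%. One two-parameter sigmoid per drug and line, fitted in a mixed model over all curves with the slope shared within a line.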

CGP-60474 = compound: OCCCNc1cc(-c2ccnc(Nc3cccc(Cl)c3)n2)ccn1 [CGP-60474]; conditions: top dose 0.256 µM; top dose inferred
Experimental: as §1

SB-715992 = compound: Cc1ccc(C(=O)N(CCCN)[C@@H](c2nc3cc(Cl)ccc3c(=O)n2Cc2ccccc2)C(C)C)cc1 [SB-715992]; conditions: top dose 0.128 µM; top dose inferred
Experimental: as §1

JQ1 = compound: Cc1sc2c(c1C)C(c1ccc(Cl)cc1)=N[C@@H](CC(=O)OC(C)(C)C)c1nnc(C)n1-2 [JQ1]
Experimental: as §1

JNJ-26854165 = compound: c1ccc2c(CCNc3ccc(Nc4ccncc4)cc3)c[nH]c2c1 [JNJ-26854165]; conditions: top dose 10 µM
Experimental: as §1

Cyclopamine = compound: CC1=C2C[C@H]3[C@@H](CC=C4C[C@@H](O)CC[C@@]43C)[C@@H]2CC[C@]12O[C@@H]1C[C@H](C)CN[C@H]1[C@H]2C [Cyclopamine]; conditions: top dose 16 µM; top dose inferred
Experimental: as §1

Docetaxel = compound: CC(=O)O[C@@]12CO[C@@H]1C[C@H](O)[C@@]1(C)C(=O)[C@H](O)C3=C(C)[C@@H](OC(=O)[C@H](O)[C@@H](NC(=O)OC(C)(C)C)c4ccccc4)C[C@@](O)([C@@H](OC(=O)c4ccccc4)[C@H]21)C3(C)C [Docetaxel]; conditions: top dose 0.0125 µM
Experimental: as §1

AMG-706 = compound: CC1(C)CNc2cc(NC(=O)c3cccnc3NCc3ccncc3)ccc21 [AMG-706]; conditions: top dose 2 µM; top dose inferred
Experimental: as §1

NSC-207895 = compound: CN1CCN(c2ccc([N+](=O)[O-])c3no[n+]([O-])c23)CC1 [NSC-207895]; conditions: top dose 20 µM; top dose inferred
Experimental: as §1

FTI-277 = compound: COC(=O)[C@H](CCSC)NC(=O)c1ccc(NC[C@@H](N)CS)cc1-c1ccccc1 [FTI-277]; conditions: top dose 1.024 µM; top dose inferred
Experimental: as §1

YM155 = compound: COCC[n+]1c2c(n(Cc3cnccn3)c1C)C(=O)c1ccccc1C2=O [YM155]; conditions: top dose 5.12 µM
Experimental: as §1

OSI-906 = compound: C[C@]1(O)C[C@@H](c2nc(-c3ccc4ccc(-c5ccccc5)nc4c3)c3c(N)nccn32)C1 [OSI-906]; conditions: top dose 2.56 µM; top dose inferred
Experimental: as §1

Belinostat = compound: O=C(/C=C/c1cccc(S(=O)(=O)Nc2ccccc2)c1)NO [Belinostat]; conditions: top dose 20 µM; top dose inferred
Experimental: as §1

[1] = top dose 1 µM, screen: GDSC drug entry 1218, top dose inferred
[2] = top dose 2.56 µM, screen: GDSC drug entry 163

| Cell Line | AUC (JNK Inhibitor VIII) | IC50 (JNK Inhibitor VIII) | AUC (CGP-60474) | IC50 (CGP-60474) | AUC (SB-715992) | IC50 (SB-715992) | AUC (JQ1; [1]) | IC50 (JQ1; [1]) | AUC (JQ1; [2]) | IC50 (JQ1; [2]) | AUC (JNJ-26854165) | IC50 (JNJ-26854165) | AUC (Cyclopamine) | IC50 (Cyclopamine) | AUC (Docetaxel) | IC50 (Docetaxel) | AUC (AMG-706) | IC50 (AMG-706) | AUC (NSC-207895) | IC50 (NSC-207895) | AUC (FTI-277) | IC50 (FTI-277) | AUC (YM155) | IC50 (YM155) | AUC (OSI-906) | IC50 (OSI-906) | AUC (Belinostat) | IC50 (Belinostat) |
| --- | --- | --- | --- | --- | --- | --- | --- | --- | --- | --- | --- | --- | --- | --- | --- | --- | --- | --- | --- | --- | --- | --- | --- | --- | --- | --- | --- | --- |
| NCI-H2081 (small cell lung carcinoma, suspension) | 0.987 | > 10 µM | 0.931 | > 256 nM | 0.862 | 120 nM | 0.975 | > 1000 nM | 0.892 | > 2560 nM | 0.981 | > 10 µM | 0.989 | > 16 µM | 0.966 | > 12.5 nM | 0.987 | > 2000 nM | 0.915 | > 20 µM | 0.987 | > 1020 nM | 0.058 | < 20 nM | 0.94 | > 2560 nM | – | – |
| OCI-AML3 (acute myeloid leukaemia, suspension) | 0.991 | > 10 µM | 0.776 | 87.6 nM | 0.563 | 11.6 nM | – | – | – | – | 0.984 | > 10 µM | 0.991 | > 16 µM | 0.906 | > 12.5 nM | 0.991 | > 2000 nM | 0.936 | > 20 µM | 0.99 | > 1020 nM | 0.047 | < 20 nM | 0.991 | > 2560 nM | 0.359 | 543 nM |
| SK-MEL-1 (melanoma, suspension) | 0.991 | > 10 µM | 0.972 | > 256 nM | 0.991 | > 128 nM | 0.979 | > 1000 nM | 0.993 | > 2560 nM | 0.897 | 9.47 µM | 0.983 | > 16 µM | 0.993 | > 12.5 nM | 0.992 | > 2000 nM | 0.978 | > 20 µM | 0.993 | > 1020 nM | 0.31 | 102 nM | 0.993 | > 2560 nM | – | – |
| SK-PN-DW (Ewing sarcoma, adherent) | 0.98 | > 10 µM | 0.781 | 111 nM | 0.76 | 46.8 nM | 0.977 | > 1000 nM | 0.858 | 2230 nM | – | – | 0.958 | > 16 µM | 0.796 | 6.12 nM | 0.965 | > 2000 nM | 0.835 | 13.9 µM | 0.957 | > 1020 nM | 0.029 | < 20 nM | 0.791 | 1190 nM | 0.365 | 522 nM |
| SW684 (fibrosarcoma, adherent) | 0.978 | > 10 µM | 0.981 | > 256 nM | 0.975 | > 128 nM | 0.98 | > 1000 nM | 0.8 | 1970 nM | – | – | 0.983 | > 16 µM | 0.768 | 6.94 nM | 0.983 | > 2000 nM | 0.981 | > 20 µM | 0.977 | > 1020 nM | 0.76 | 2630 nM | 0.983 | > 2560 nM | 0.963 | > 20000 nM |
